Some of the results follow. Single values are uncertain, as repeats are few or missing.
Columns and labels:
Experiment in all cases: cell count relative to DMSO control; melanoma cells; higher = more viable cells
Details in all cases: library dose: standard library concentration; 72 h
IST-MEL1 = system: IST-MEL1
LB2518-MEL = system: LB2518-MEL
LOXIMVI = system: LOXIMVI
MEL-HO = system: MEL-HO
MZ2-MEL = system: MZ2-MEL
MeWo = system: MeWo
RPMI7951 = system: RPMI7951
RVH-421 = system: RVH-421
SkMel28 = system: SkMel28
SkMel2 = system: SkMel2
SkMel30 = system: SkMel30
SkMel5 = system: SkMel5
UACC257 = system: UACC257
UACC62 = system: UACC62
WM115 = system: WM115
WM1716 = system: WM1716
WM1745 = system: WM1745
WM3526 = system: WM3526
WM3619 = system: WM3619
WM451Lu = system: WM451Lu
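Further: cells treated in 1,536-well plates, then fixed and DAPI-stained, with nuclei counted from automated high-throughput microscope images.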

What does the source list for `COc1ccc(COc2ccc(Cc3cnc(N)nc3N)cc2OC)cc1` + c1cc(-c2cnn3cc(-c4ccc(OCCN5CCCCC5)cc4)cnc23)ccn1 [Dorsomorphin] (first compound 5 µM, partner dose 2 µM)?
cell count (IST-MEL1): 87.1%; cell count (LB2518-MEL): 93.7%; cell count (LOXIMVI): 91.7%; cell count (MEL-HO): 84%; cell count (MZ2-MEL): 61.5%; cell count (MeWo): 74.2%; cell count (RPMI7951): 61.2%; cell count (RVH-421): 126%; cell count (SkMel28): 70.5%; cell count (SkMel2): 85.3%; cell count (SkMel30): 76.9%; cell count (SkMel5): 65.6%; cell count (UACC257): 72.3%; cell count (UACC62): 73.5%; cell count (WM115): 92.1%; cell count (WM1716): 84.5%; cell count (WM1745): 33.2%; cell count (WM3526): 71.9%; cell count (WM3619): 80.3%; cell count (WM451Lu): 70.8%

How did the cell count (IST-MEL1) turn out when `CCN(CC)CCCCNc1ncc2cc(-c3cc(OC)cc(OC)c3)c(NC(=O)NC(C)(C)C)nc2n1` + CCCCCCCCCCCC1=C(O)C(=O)C=C(O)C1=O [Embelin] (first compound 0.5 µM, partner dose 6 µM) was run?
The cell count was 80.8%.

And the cell count (LB2518-MEL)?
The cell count was 88.5%.

And the cell count (LOXIMVI)?
Its cell count is 72%.

And the cell count (MEL-HO)?
The cell count was 78.7%.

And the cell count (MZ2-MEL)?
The cell count was 99.5%.

And the cell count (MeWo)?
Its cell count is 95.9%.

And the cell count (RPMI7951)?
The cell count was 110%.

What about the cell count (RVH-421) of the same compound?
Its cell count is 108%.

And the cell count (SkMel28)?
Its cell count is 103%.

And the cell count (SkMel2)?
The cell count was 85.4%.

And the cell count (SkMel30)?
Its cell count is 97.7%.

And the cell count (SkMel5)?
Its cell count is 112%.

And the cell count (UACC257)?
The cell count was 90.7%.

What about the cell count (UACC62) of the same compound?
Its cell count is 91.6%.

And the cell count (WM115)?
The cell count was 116%.

And the cell count (WM1716)?
Its cell count is 89.2%.

What about the cell count (WM1745) of the same compound?
The cell count was 89.8%.

And the cell count (WM3526)?
Its cell count is 78.1%.

What about the cell count (WM3619) of the same compound?
Its cell count is 101%.

What about the cell count (WM451Lu) of the same compound?
The cell count was 77.2%.

What does the source list for `COc1ccc2c(c1)CCC1C2CCC2(C)C(NCCCCCCN3C(=O)C=CC3=O)CCC12` (stereo not given) + Cc1cc([N+](=O)[O-])ccc1NS(=O)(=O)c1cc(Cl)ccc1Cl [FH535] (first compound 2 µM, partner dose 5 µM)?
cell count (IST-MEL1): 50.6%; cell count (LB2518-MEL): 81.9%; cell count (LOXIMVI): 56.5%; cell count (MEL-HO): 41.4%; cell count (MZ2-MEL): 51.4%; cell count (MeWo): 53.5%; cell count (RPMI7951): 27.2%; cell count (RVH-421): 50.6%; cell count (SkMel28): 68.8%; cell count (SkMel2): 79.8%; cell count (SkMel30): 105%; cell count (SkMel5): 76.4%; cell count (UACC257): 57.8%; cell count (UACC62): 60.5%; cell count (WM115): 76.5%; cell count (WM1716): 65.9%; cell count (WM1745): 55.5%; cell count (WM3526): 81.1%; cell count (WM3619): 23.4%; cell count (WM451Lu): 94.9%

With `N#Cc1c(O)c2c(-c3ccc(-c4ccccc4O)cc3)csc2[nH]c1=O` + COc1ccc(-c2ccc3c(N4CCOCC4)nc(N4C[C@@H](C)O[C@@H](C)C4)nc3n2)cc1CO [KU0063794] (first compound 10 µM, partner dose 0.1 µM) as the compound, how does the cell count (IST-MEL1) read?
Its cell count is 80.4%.

And the cell count (LB2518-MEL)?
The cell count was 95%.

What about the cell count (LOXIMVI) of the same compound?
The cell count was 104%.

And the cell count (MEL-HO)?
Its cell count is 84.8%.

And the cell count (MZ2-MEL)?
The cell count was 88.6%.

What about the cell count (MeWo) of the same compound?
Its cell count is 89.6%.

What about the cell count (RPMI7951) of the same compound?
The cell count was 113%.

What about the cell count (RVH-421) of the same compound?
Its cell count is 116%.

What about the cell count (SkMel28) of the same compound?
Its cell count is 84.9%.

What about the cell count (SkMel2) of the same compound?
The cell count was 88.4%.

And the cell count (SkMel30)?
The cell count was 108%.

What about the cell count (SkMel5) of the same compound?
The cell count was 78.7%.

And the cell count (UACC257)?
Its cell count is 93.9%.

And the cell count (UACC62)?
Its cell count is 85.7%.

What about the cell count (WM115) of the same compound?
The cell count was 82.5%.

What about the cell count (WM1716) of the same compound?
Its cell count is 98.8%.

And the cell count (WM1745)?
Its cell count is 110%.

What about the cell count (WM3526) of the same compound?
Its cell count is 99%.

What about the cell count (WM3619) of the same compound?
The cell count was 63.5%.

And the cell count (WM451Lu)?
Its cell count is 84%.

With `Oc1cc(-c2nc(-c3ccccc3)[nH]c2-c2ccncc2)ccc1Cl` + Cn1cc(/C=C2\C(=O)Nc3cccnc32)c2ccccc21 [GW441756] (first compound 1 µM, partner dose 2 µM) as the compound, how does the cell count (IST-MEL1) read?
Its cell count is 83.5%.

And the cell count (LB2518-MEL)?
The cell count was 83.2%.

And the cell count (LOXIMVI)?
The cell count was 77.2%.

What about the cell count (MEL-HO) of the same compound?
Its cell count is 76%.

What about the cell count (MZ2-MEL) of the same compound?
The cell count was 94.5%.

And the cell count (MeWo)?
The cell count was 92.2%.

And the cell count (RPMI7951)?
Its cell count is 80.6%.

And the cell count (RVH-421)?
The cell count was 70.5%.

What about the cell count (SkMel28) of the same compound?
Its cell count is 35.9%.

What about the cell count (SkMel2) of the same compound?
Its cell count is 27.5%.

What about the cell count (SkMel30) of the same compound?
Its cell count is 71.1%.

And the cell count (SkMel5)?
Its cell count is 46%.

What about the cell count (UACC257) of the same compound?
The cell count was 83.8%.

What about the cell count (UACC62) of the same compound?
The cell count was 44.3%.

And the cell count (WM115)?
Its cell count is 46.5%.

What about the cell count (WM1716) of the same compound?
The cell count was 86.7%.

What about the cell count (WM1745) of the same compound?
The cell count was 44.8%.

And the cell count (WM3526)?
Its cell count is 44.7%.

What about the cell count (WM3619) of the same compound?
Its cell count is 77.2%.

What about the cell count (WM451Lu) of the same compound?
Its cell count is 47.7%.

What does the source list for `Oc1cc(-c2nc(-c3ccccc3)[nH]c2-c2ccncc2)ccc1Cl` + CCCCCCCCCCCC1=C(O)C(=O)C=C(O)C1=O [Embelin] (first compound 1 µM, partner dose 6 µM)?
cell count (IST-MEL1): 70.2%; cell count (LB2518-MEL): 132%; cell count (LOXIMVI): 101%; cell count (MEL-HO): 79.6%; cell count (MZ2-MEL): 101%; cell count (MeWo): 91.6%; cell count (RPMI7951): 114%; cell count (RVH-421): 64.2%; cell count (SkMel28): 37.3%; cell count (SkMel2): 33.7%; cell count (SkMel30): 80.7%; cell count (SkMel5): 88.1%; cell count (UACC257): 79.5%; cell count (UACC62): 55.7%; cell count (WM115): 59.2%; cell count (WM1716): 79%; cell count (WM1745): 65.4%; cell count (WM3526): 55.1%; cell count (WM3619): 70.1%; cell count (WM451Lu): 61.9%

With `COc1ccc2c(c1)CCC1C2CCC2(C)C(NCCCCCCN3C(=O)C=CC3=O)CCC12` (stereo not given) + COc1ccc(-c2ccc3c(N4CCOCC4)nc(N4C[C@@H](C)O[C@@H](C)C4)nc3n2)cc1CO [KU0063794] (first compound 2 µM, partner dose 0.1 µM) as the compound, how does the cell count (IST-MEL1) read?
Its cell count is 85%.

And the cell count (LB2518-MEL)?
The cell count was 100%.

What about the cell count (LOXIMVI) of the same compound?
The cell count was 78.5%.

And the cell count (MEL-HO)?
Its cell count is 88.9%.

And the cell count (MZ2-MEL)?
Its cell count is 78.8%.

And the cell count (MeWo)?
The cell count was 55.8%.

And the cell count (RPMI7951)?
The cell count was 37.2%.

And the cell count (RVH-421)?
Its cell count is 86.9%.

And the cell count (SkMel28)?
The cell count was 68.3%.

What about the cell count (SkMel2) of the same compound?
Its cell count is 83.1%.

And the cell count (SkMel30)?
The cell count was 60.4%.

And the cell count (SkMel5)?
The cell count was 59.3%.

What about the cell count (UACC257) of the same compound?
Its cell count is 86.1%.

And the cell count (UACC62)?
The cell count was 75.6%.

And the cell count (WM115)?
The cell count was 72%.

What about the cell count (WM1716) of the same compound?
The cell count was 86.5%.

What about the cell count (WM1745) of the same compound?
Its cell count is 68.9%.

And the cell count (WM3526)?
Its cell count is 85.6%.

And the cell count (WM3619)?
The cell count was 54%.

What about the cell count (WM451Lu) of the same compound?
Its cell count is 78.5%.

Which results are given for `O=C(O)C(=O)Nc1sc2c(c1C(=O)O)CCNC2` + Oc1nc(-c2ccc(C(F)(F)F)cc2)nc2c1CSCC2 [XAV939] (first compound 8.33333 µM, partner dose 10 µM)?
cell count (IST-MEL1): 99.8%; cell count (LB2518-MEL): 85.3%; cell count (LOXIMVI): 103%; cell count (MEL-HO): 89%; cell count (MZ2-MEL): 93%; cell count (MeWo): 83.4%; cell count (RPMI7951): 97.7%; cell count (RVH-421): 73.1%; cell count (SkMel28): 68.5%; cell count (SkMel2): 100%; cell count (SkMel30): 102%; cell count (SkMel5): 71.9%; cell count (UACC257): 89.9%; cell count (UACC62): 87.2%; cell count (WM115): 71.1%; cell count (WM1716): 78.5%; cell count (WM1745): 60.5%; cell count (WM3526): 88.8%; cell count (WM3619): 78%; cell count (WM451Lu): 97.1%

Which results are given for `c1cc(-c2cnn3cc(-c4ccc(OCCN5CCCCC5)cc4)cnc23)ccn1` [Dorsomorphin] + COc1cc(N2CCC(N3CCN(C)CC3)CC2)ccc1Nc1ncc(Cl)c(Nc2ccccc2S(=O)(=O)C(C)C)n1 [NVP-TAE684] (first compound 2 µM, partner dose 0.4 µM)?
cell count (IST-MEL1): 85.4%; cell count (LB2518-MEL): 64.6%; cell count (LOXIMVI): 104%; cell count (MEL-HO): 83%; cell count (MZ2-MEL): 69.5%; cell count (MeWo): 51.2%; cell count (RPMI7951): 38.5%; cell count (RVH-421): 95.3%; cell count (SkMel28): 60.7%; cell count (SkMel2): 67.4%; cell count (SkMel30): 83%; cell count (SkMel5): 45.9%; cell count (UACC257): 65.5%; cell count (UACC62): 43%; cell count (WM115): 53.7%; cell count (WM1716): 78%; cell count (WM1745): 37.2%; cell count (WM3526): 68.1%; cell count (WM3619): 76.6%; cell count (WM451Lu): 70.6%
